# Measurements taken from PubChem BioAssay AID1963576 (National Center for Advancing Translational Sciences (NCATS), 2024).
# In all, about 46,000 compounds went through this assay and about 60 (0.1%) were called active. Inconclusive results (about 3%) are left out. Calls come from the whole dose curve; as a rule, active = well fitted inhibition curve with a large enough effect; inconclusive = small, poorly fitted or top-dose-only effect; inactive = no such curve, though single readings can be large or run the other way. This is one part of the list.
# Assay: Primary qHTS assay for Inhibitors of ovarian cancer metastasis using an organotypic tumor microenvironment (TME) model.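 For activity change, negative = inhibition: plate controls were DMSO wells for no effect and tomatine positive control wells for full effect.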 Note: nearly all actives have a fitted effect of over 65% in size.
# Conditions: SKOV3ip1-GFP adhesion/invasion on 3D omental model, fluorescence; series mostly up to 45.8 µM; activity change, negative = inhibition: at the top concentration
# How it was run: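 A 3D layer of primary human omental fibroblasts, mesothelial cells, fibronectin and collagen I, grown 48 hr, received SKOV3ip1-GFP cells in serum-free medium plus compounds at 0.36-46 umol/L. After 2 hr RT and 16 hr 37 C, fixed adherent GFP cells were counted; normalized to DMSO and tomatine.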
Compound,"activity change, negative = inhibition",outcome
Cc1ccc(NC(=O)[C@H]2O[C@@H]3OC(C)(C)O[C@@H]3[C@H]3OC(C)(C)O[C@H]32)cc1F,inactive: 3.78%,–
Cc1ccc2c(c1)C(c1ccccc1)N(C(=O)c1ccc(S(=O)(=O)N3CCCCC3)cc1)CC(=O)N2 (stereo not drawn),–,inactive
CSc1nc(Nc2ccc(C)cc2)c(C#N)c(-c2ccccc2)n1,inactive: -25.8%,–
CCS(=O)(=O)NCC(c1ccco1)N1CCN(c2ccccc2)CC1 (stereo not drawn),inactive: 3.2%,–
O=C(NCCn1cc(SCc2ccccc2F)c2ccccc21)c1cccs1,–,inactive
CCc1ccc(CNC(=O)CSc2c3c(nc4ccc(Cl)cc24)CCCC3)cc1,inactive: -5.68%,–
Cc1ccc(NC(=O)c2cc3nc(-c4ccc5c(c4)OCO5)cc(C(F)(F)F)n3n2)cc1Cl,inactive: 6.03%,–
O=C(NCc1ccc(F)cc1)c1ccc(CS(=O)Cc2ccc(Cl)cc2)o1 (stereo not drawn),–,inactive
O=c1c(=O)n(-c2ccccc2)ccn1Cc1cccc(C(F)(F)F)c1,inactive: -5.3%,–
Oc1c(C(c2ccccc2)N2CCN(c3cccc(Cl)c3)CC2)sc2nc(-c3ccco3)nn12 (stereo not drawn),–,inactive
Cc1ccc(CSc2ncc(Cl)c(C(=O)Nc3nc4ccc(C)cc4s3)n2)cc1,inactive: -12.9%,–
Cc1ccc(N2CC(c3nnc(Cc4ccc(F)cc4)o3)CC2=O)cc1 (stereo not drawn),inactive: 14.2%,–
Cc1c(C(=O)Nc2ccccc2Cl)sc2ncnc(N(C)C3CCCCC3)c12,inactive: -7.95%,–
COc1cc(Cl)c(NC(=O)c2cc(CN3CCCC3)on2)c(OC)c1,inactive: 16.6%,–
O=C1COc2ccc(-c3cc(-c4ccc(F)cc4)c4c(n3)-c3cc(Cl)ccc3OC4)cc2N1,–,inactive
COc1ccccc1CNS(=O)(=O)c1cc(Br)cc2c1N(C(C)=O)C(C)C2 (stereo not drawn),–,inactive
COc1ccc2c(c1)CC(C(=O)Nc1cccc(C)c1C)CO2 (stereo not drawn),inactive: -5.52%,–
CC(C)c1ccc(NC(=O)C2CCCN(S(=O)(=O)c3cccc4nsnc34)C2)cc1 (stereo not drawn),–,inactive
Cc1oc(-c2ccccc2F)nc1CSCC(=O)NCc1ccccc1,inactive: 8.66%,–
COc1ccc(Cn2ccnc2SCC(=O)NC2CCCC2)cc1,inactive: -5.41%,–
CC(CCc1ccccc1)NC(=O)Cn1c(=O)nc(-c2ccccc2F)c2cc(Cl)ccc21 (stereo not drawn),inactive: 37.4%,–
O=C(CSc1nccn1-c1ccc(Cl)cc1)Nc1cccc2ccccc12,–,inactive
COc1ccc(C2CC(=O)c3cnc4c(-c5ccccc5)c(C)nn4c3C2)cc1OC (stereo not drawn),–,inactive
CCOC(=O)Cn1c(=O)n(C2CCCCC2)c2nc(-c3ccc(OCC)cc3)nc(C(N)=O)c21,inactive: -2.47%,–

Compound,"activity change, negative = inhibition",outcome
COc1cccc(-n2ccnc2SCC(=O)Nc2ccc(Cl)c(Cl)c2)c1,inactive: -2.04%,–
COC(=O)c1ccc(NS(=O)(=O)c2c(C)nc3sccn3c2=O)cc1,inactive: 0.537%,–
COCCOC(=O)c1c(C)oc2c1cc(NS(=O)(=O)c1ccc(Cl)c(C)c1)c1ccccc12,inactive: 1.91%,–
CCc1ccccc1NS(=O)(=O)c1ccc2oc(=O)c3ncn(C)c3c2c1,–,inactive
Cc1nn(C)c2c1c(C(F)(F)F)cc(=O)n2C(C)C(=O)NCCc1ccc(Cl)cc1 (stereo not drawn),inactive: 0.987%,–
Cc1c(-c2cccc(NC(=O)c3ccc(F)c(F)c3)c2)nc2ncccn12,inactive: -3.84%,–
CCOC(=O)c1cnc2c(Cl)c(Cl)ccc2c1NCCN1CCOCC1,inactive: 4.39%,–
CNS(=O)(=O)c1ccc(NC(=O)c2cnn3c(C(F)F)cc(-c4ccccc4)nc23)cc1,inactive: 9.19%,–
O=c1c(-c2ccc(O)cc2)coc2cc(O[C@@H]3O[C@H](CO)[C@H](O)[C@H](O)[C@H]3O)ccc12,inactive: -16.3%,–
COc1ccc(OCc2ccc(-c3nc(C#N)c(NCc4ccccc4)o3)o2)cc1,inactive: -6.87%,–
Cc1ccc(Oc2coc3cc(OCC(=O)NC4CCCCC4)ccc3c2=O)cc1,inactive: 0.637%,–
N#Cc1ccc(C(=O)Nc2ccccc2-c2nc3ccccc3s2)c(F)c1,–,inactive
Cc1ccc2onc(CNC(=O)Nc3ccccc3C#N)c2c1,inactive: 4.13%,–
O=C(NCC(c1ccc2c(c1)OCO2)N1CCN(c2ccc(F)cc2)CC1)c1cccc([N+](=O)[O-])c1 (stereo not drawn),inactive: -25.5%,–
CN(C1CCCCC1)S(=O)(=O)c1ccc2c(c1)c(=O)c(C(=O)NCc1ccccc1Cl)cn2C,inactive: 3.64%,–
O=C(Nc1ccc(F)cc1Cl)C1CCN(c2ncnc3c2nc2n3CCCCC2)CC1,inactive: 1.56%,–
CCc1ccc(NC(=O)C2CCCN(c3nn4cc(-c5ccc(OC)cc5)nc4s3)C2)cc1 (stereo not drawn),inactive: 0.993%,–
CCOc1ccc(C2C(C(=O)OC)=C(C)NC3=C2C(=O)c2ccccc23)cc1OC (stereo not drawn),inactive: -11.1%,–
Cc1ccc(NC(=O)c2c(C)oc3ccc(O)c(CN4CCCC4)c23)c(C)c1,–,inactive
CCc1ccccc1NC(=O)CSc1ncccc1C(=O)O,inactive: 10.5%,–
COc1cccc(CNC(=O)CCc2c(C)nc3c(c2C)c(=O)n(C)c(=O)n3C)c1,–,inactive
COc1ccc(Nc2ncnc3c2c(-c2ccccc2)cn3-c2ccc(C)c(Cl)c2)cc1OC,–,inactive
CCOc1ccc(CN2C(=O)c3ccccc3Sc3ccc(C(=O)NCCc4ccccc4)cc32)cc1,–,inactive
COc1ccc2[nH]cc(CCNC(=O)Nc3cccc(F)c3)c2c1,inactive: 2.82%,–

Compound,"activity change, negative = inhibition",outcome
Cc1ccc(-n2c3c(c(=O)[nH]c2=O)C(NS(=O)(=O)c2ccc(C)cc2)(C(F)(F)F)C(=O)N3)cc1 (stereo not drawn),–,inactive
CC(=O)c1cccc(Nc2ncnc3c2cnn3C)c1,–,inactive
O=C(NCCc1ccc(Cl)cc1)c1ccc(Cn2c(=O)[nH]c3ccccc3c2=O)cc1,–,inactive
CCOc1ccccc1NC(=O)Cc1csc(COc2cccc(C)c2)n1,–,inactive
CC(=O)c1ccc(NS(=O)(=O)c2cnc(N)nc2)cc1,inactive: -9.34%,–
Cc1cccc(NC(=O)CSC2=Nc3ccccc3C3=NC(CCC(=O)NCc4ccc(F)cc4)C(=O)N23)c1 (stereo not drawn),inactive: 7.81%,–
CCOc1ccccc1NC(=O)c1cc2cc(C)ccc2n1C,inactive: -11.8%,–
CC1CCN(S(=O)(=O)c2ccc(C(=O)Nc3nc4ccc(F)cc4s3)cc2)CC1,inactive: -3.82%,–
COC(=O)c1c(NC(=O)COc2c(C)cccc2C)sc2c1CCCC2,inactive: -2.77%,–
Cc1ccccc1NC(=O)c1c(NC(=O)c2ccncc2)sc2c1CCC(C(C)(C)C)C2 (stereo not drawn),–,inactive
COc1ccccc1NC(=O)C1=C(C)Nc2nc(-c3ccco3)nn2C1c1ccccc1 (stereo not drawn),inactive: 6.35%,–
COc1ccc(-c2nc(SCC(=O)Nc3ccc4c(c3)OCO4)c(-c3ccccc3)[nH]2)cc1,inactive: -28.6%,–
COc1cccc(CNC(=O)c2ccc3c(c2)N(C)C(=O)C2CCCCN32)c1 (stereo not drawn),inactive: -6.25%,–
CCc1ccc(NC(=O)C2CCC(CNS(=O)(=O)c3cccs3)CC2)cc1 (stereo not drawn),inactive: -0.471%,–
CCn1cc(C(=O)N2CCN(c3cc(Cl)ccc3C)CC2)c(=O)c2cc(S(=O)(=O)N3CCOCC3)ccc21,–,inactive
CCC(=O)N1CCc2cc(Br)cc(S(=O)(=O)N3CCC(C(=O)N(CC)CC)CC3)c21,inactive: -6.39%,–
CCOc1ccc(-c2cc3nc(C4CCN(C(=O)OC(C)(C)C)CC4)c(C(=O)Nc4ccc(C)c(F)c4)cn3n2)cc1,inactive: -5.84%,–
CC(C)CCNC(=O)c1cn(C)c2ccc(S(=O)(=O)N3CCCC3)cc2c1=O,–,inactive
CCOC(=O)c1c(NC(=O)c2cc(-c3ccc(Cl)cc3)on2)sc2c1CCCC2,inactive: 12.9%,–
CC1CCN(c2cc3c(cc2F)c(=O)c(S(=O)(=O)c2ccc(Cl)cc2)cn3C)CC1,inactive: 22%,–
COc1ccc(Nc2nc3c(S(=O)(=O)c4ccc(Br)cc4)nnn3c3ccsc23)c(OC)c1,inactive: 8.87%,–
COc1ccc(-c2noc(N3CCC(C(=O)Nc4ccc(F)cc4Cl)CC3)n2)cc1,inactive: -13.7%,–
CCN(C(=O)CCS(=O)(=O)c1cc2[nH]c(=O)c(=O)[nH]c2cc1C)c1ccccc1,–,inactive
Cc1ccc2c(c1)C(=O)OC(C(=O)Nc1ncc(Cc3ccc(C(C)C)cc3)s1)C2 (stereo not drawn),inactive: 9.02%,–

Compound,"activity change, negative = inhibition",outcome
Cc1ccc(Cl)cc1NS(=O)(=O)c1ccc2oc(=O)c3ncn(C)c3c2c1,inactive: -7.02%,–
COc1cccc(CNC(=O)C(CC(C)C)NS(=O)(=O)c2ccc3c(c2)oc(=O)n3C)c1 (stereo not drawn),inactive: -9.93%,–
Cc1c2cnn(CC(=O)N3CCCCC3)c(=O)c2c(C)n1Cc1ccc(F)cc1,inactive: -7.81%,–
CCOc1ccc(C(c2c(O)cc(C)n(CCOC)c2=O)N2CCN(c3ccccc3)CC2)cc1 (stereo not drawn),–,inactive
CCCN(CCC)C(=O)Cn1c(=O)n(-c2cccc(OC)c2)c(=O)c2c(C)c(C(=O)N(C)C)sc21,–,inactive
CCC(Sc1nc2ncccc2[nH]1)C(=O)Nc1cccc(OC)c1 (stereo not drawn),inactive: 6.83%,–
Cc1ccc(N(CC(=O)N2CCN(c3ccc(Cl)cc3)CC2)S(=O)(=O)c2c(C)nn(C)c2C)cc1,–,inactive
Cc1ccc(-c2cn3nc(N4CCCC(C(=O)Nc5ccc(F)cc5)C4)sc3n2)cc1 (stereo not drawn),–,inactive
O=C(NCCc1ccc(F)cc1)C(=O)NCC(c1cccs1)S(=O)(=O)c1ccc(F)cc1 (stereo not drawn),inactive: -1.46%,–
Cc1ccc2sc(N3CCN(C(=O)CCS(=O)(=O)c4ccc(Cl)cc4)CC3)nc2c1C,inactive: -0.937%,–
Cc1ccc(C)c(S(=O)(=O)c2cn(C)c3cc(N4CCCCC4C)c(F)cc3c2=O)c1 (stereo not drawn),inactive: 8.74%,–
CN1CCc2c(sc3c2C(=O)NC(c2ccc(OC(=O)c4ccccc4)cc2)N3)C1 (stereo not drawn),inactive: -2.73%,–
COc1ccc(OC)c(NCc2cccn2-c2nnc(N3CCCCC3)s2)c1,inactive: -21.4%,–
OCCN1CCN(CCCN2c3ccccc3Sc3ccc(C(F)(F)F)cc32)CC1,inactive: -38%,–
COc1ccc(CNC(=O)Cn2ncc3c4ccccc4n(Cc4cccc(Cl)c4)c3c2=O)cc1,inactive: 1.19%,–
COCCCn1c(=O)c2sccc2n2c(CCCC(=O)Nc3cc(C)cc(C)c3)nnc12,inactive: 12.4%,–
COc1ccccc1OCCCSc1nc(-c2ccc(C(C)(C)C)cc2)nc2cc(=O)[nH]n12,inactive: -2.82%,–
COc1ccccc1CNC(=O)C1CCCN(C(=O)c2cnn(-c3ccc(F)cc3)c2-n2cccc2)C1 (stereo not drawn),–,inactive
Cc1ccc(NC(=O)C(Cc2ccccc2)n2cccc2)cc1 (stereo not drawn),inactive: 4.07%,–
Cn1c(=O)c2c(-c3ccc(Cl)cc3)n(Cc3ccc(Cl)cc3)cc2n(C)c1=O,inactive: 7.77%,–
Cc1cccc(-c2nc3c4ccccc4nc(N4CCN(c5ccccc5F)CC4)n3n2)c1,inactive: 4.17%,–
